In US20250243245A1 (priority 2022, published 2025):
Where a SMILES comes first, the peptide text is derived from it. Bridges are numbered along the chain shown (N, C = ends).

Tests used:
[1] = test system: E. coli BL21; conditions: Table V
Description: . The bioluminescence assay (22) measures the number of viable microbial cells in culture based on quantitation of the ATP present. Note that ATP is present in live (metabolically active) cells but not in dead cells. […] Note that chimeras AC and CA were identified as the most promising antibacterial agents. Also, note the synergistic effect of the units A and C in chimeras as evidenced by the much lower MIC of the chimera than that of the equimolar mixtures of units A and C.
(§1) Bioluminescence assay: The bioluminescence assay was conducted using the BacTiter-Glo Microbial Cell Viability Assay kit (Promega G8231). Bioluminescence was measured using plate reader. To determine exact CFU values, a standard curve was used to correlate the CFU to bioluminescence. […] To determine IC50% and IC99% values dose-response curves were fitted to Hill equation.

[2] = test system: ATCC25922; conditions: Table V; ATCC
Procedure: These parameters in the energy minimized structures of the chimeras also allowed empirical ranking of the chimeras in terms of antibacterial activity. […] . The MIC assay was performed on a 96-well plate by serial dilution of the peptide in the concentration range 20-0.02 mM and monitoring the growth of the E. coli strain BL21 and (in some cases ATCC25922) by measuring optical density (OD)/cfu. This produced the range of MIC above which no bacterial growth was observed. […] . Tables sIa and sIb show various fragments of the citrus and apple proteins that are homologous to various chimeras shown in Table I, which include: single units on the N/C-terminal of the chimeras, linkers joining them, and the chimera fragments containing the N-terminal, the linker, and the C-terminal as well.
as §1

Row | Structure (SMILES) | IC50 [1] | IC99% [1] | IC50 [2] | IC99% [2]
1 | CC(C)C[C@@H]1NC(=O)[C@H](CCCNC(=N)N)NC(=O)[C@H](CCCNC(=N)N)NC(=O)[C@@H](NC(=O)[C@@H](N)CCCCN)CSSC[C@@H](C(=O)N[C@@H](CCCNC(=N)N)C(=O)NCC(=O)N[C@@H](CCCNC(=N)N)C(=O)N[C@@H](CCC(N)=O)C(=O)O)NC(=O)[C@H](Cc2ccc(O)cc2)NC(=O)[C@H]([C@@H](C)O)NC(=O)[C@H](C(C)C)NC(=O)[C@@H]2CSSC[C@H](NC1=O)C(=O)N[C@@H](Cc1ccc(O)cc1)C(=O)N[C@@H](CCCCN)C(=O)N[C@@H](CCC(N)=O)C(=O)N[C@@H](CCCNC(=N)N)C(=O)N2 [Peptide L19GA, KC2RRLC6YKQRC11VTYC15RGRQ] | 1000 ± 300 nM | 1.6 ± 0.3 µM | 1200 ± 300 nM | 1.3 ± 0.3 µM
2 | CC[C@H](C)[C@H](NC(=O)[C@H](CCCCN)NC(=O)[C@H](CC(C)C)NC(=O)[C@@H](NC(=O)[C@H](CCCCN)NC(=O)[C@H](CCC(=O)O)NC(=O)[C@@H]1CCCN1C(=O)[C@H](CCC(N)=O)NC(=O)[C@H](CCCNC(=N)N)NC(=O)CNC(=O)[C@H](CCCNC(=N)N)NC(=O)[C@@H]1CSSC[C@H](NC(=O)[C@@H](N)CCCCN)C(=O)N[C@@H](CCCNC(=N)N)C(=O)N[C@@H](CCCNC(=N)N)C(=O)N[C@@H](CC(C)C)C(=O)N[C@H]2CSSC[C@H](NC(=O)[C@H](CCCNC(=N)N)NC(=O)[C@H](CCC(N)=O)NC(=O)[C@H](CCCCN)NC(=O)[C@H](Cc3ccc(O)cc3)NC2=O)C(=O)N[C@@H](C(C)C)C(=O)N[C@@H]([C@@H](C)O)C(=O)N[C@@H](Cc2ccc(O)cc2)C(=O)N1)[C@@H](C)CC)C(=O)N[C@@H](CC(C)C)C(=O)N[C@@H](CCC(=O)O)C(=O)N[C@@H](CO)C(=O)N[C@@H](CC(C)C)C(=O)N[C@@H](CCCCN)C(=O)O [α/βP-3, KCRRLCYKQRCVTYCRGROPEKILKILESLK] (H-KCRRLCYKQRCVTYCRGRQPEKILKILESLK-OH; disulfide 2-15, 6-11 (inferred); N-terminus and C-terminus assumed) |  | 2.6 ± 1.0 µM |  | 1.0 ± 0.2 µM
